This note sets out measurements from the supplement of paper PMC10369915.

The other results are listed elsewhere or left out. Rule as the data show it: active = 3.2 or more and inactive = the rest. Most of these values are background signal.
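Also: displayed peptides selected on beads carrying the immobilized SH2 domain, with library peptides lacking any tyrosine serving as negative controls.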

The target in the first assay is SHP2 C-SH2 domain E139D. Kind of assay: enrichment score (SH2-bound / input frequency) (ratio); bacterial display of known human phosphotyrosine sites (pTyr-Var adds point mutants) read by sequencing; higher = stronger binding; tyrosines were phosphorylated by kinases first. Conditions: peptide library: pTyr-Var.
Consider GKGGSYSQAAS [HLA-B_Y344_C349S], for which the enrichment score was inactive: 0.615.
As to RLVTRYIFNRE [HLA-DQB1_Y62_Y58L_YF], the enrichment score was inactive: 1.76.
Take RGVTRYIFNRE [HLA-DQB1_Y62_Y58G_YF]: the enrichment score is inactive: 0.336.
For the molecule EQDRAYLEGTC [HLA-C_Y183_L180D], the enrichment score is inactive: 0.515.
For DWLRRYLENGK [HLA-A_Y195_E190D], the enrichment score is inactive: 0.55.
For SHSMRYFFTAV [HLA-C_Y31_D33F], the enrichment score is inactive: 3.04.
Regarding TLQSMYGCDVG [HLA-B_Y123], the enrichment score is inactive: 1.
As for RLLRGYNQSAF [HLA-C_Y137_D138N_YF], the enrichment score is inactive: 1.24.
LERFIYNPEEF [HLA-DPB1_Y59_R61P_YF]: the enrichment score is inactive: 1.29.
On to FISVGYVDDTL [HLA-B_Y51_Q56L], for which the enrichment score is inactive: 0.922.
In the case of RFLERYIYNPE [HLA-DPB1_Y57_R61P], the enrichment score is inactive: 2.23.
For ESLRRYLENGK [HLA-B_Y195_W191S], the enrichment score is inactive: 0.709.
As to FITVGYVDDTQ [HLA-B_Y51_S48T], the enrichment score was inactive: 1.19.
The same measure, in the same setting: in the case of LERFIYNREEL [HLA-DPB1_Y59_F64L_YF] it was inactive: 1.31.
As for QEGPEYWDGNT [HLA-B_Y83_R86G], the enrichment score was inactive: 0.808.
For EQLRAYLEGLC [HLA-C_Y183_T187L], the enrichment score is inactive: 1.21.
Turning to AQVDTYCRHNF [HLA-DRB1_Y107_A103Q_YF], the enrichment score was inactive: 0.658.
As to RFLERDIFNRE [HLA-DPB1_Y57_Y57D_YF], the enrichment score is inactive: 1.05.

Another assay deals with SHP2 C-SH2 domain wild-type. Described as above. Conditions: peptide library: pTyr-Var.
Consider GKGGSYSQAAS [HLA-B_Y344_C349S], for which the enrichment score is inactive: 0.536.
As for RLVTRYIFNRE [HLA-DQB1_Y62_Y58L_YF], the enrichment score is inactive: 0.459.
For the molecule RGVTRYIFNRE [HLA-DQB1_Y62_Y58G_YF], the enrichment score was inactive: 0.269.
With EQDRAYLEGTC [HLA-C_Y183_L180D], the enrichment score is inactive: 0.506.
On the same count and under the same terms, as for DWLRRYLENGK [HLA-A_Y195_E190D], the figure is inactive: 0.429; as for SHSMRYFFTAV [HLA-C_Y31_D33F], inactive: 2.82.
Consider TLQSMYGCDVG [HLA-B_Y123], for which the enrichment score was inactive: 0.79.
Regarding RLLRGYNQSAF [HLA-C_Y137_D138N_YF], the enrichment score is inactive: 1.07.
With LERFIYNPEEF [HLA-DPB1_Y59_R61P_YF], the enrichment score is inactive: 0.937.
In the case of FISVGYVDDTL [HLA-B_Y51_Q56L], the enrichment score was inactive: 1.24.
In the case of RFLERYIYNPE [HLA-DPB1_Y57_R61P], the enrichment score was inactive: 1.62.
Take ESLRRYLENGK [HLA-B_Y195_W191S]: the enrichment score was inactive: 0.588.
Consider FITVGYVDDTQ [HLA-B_Y51_S48T], for which the enrichment score is inactive: 1.14.
For the molecule LERFIYNREEL [HLA-DPB1_Y59_F64L_YF], the enrichment score is inactive: 1.05.
The same measure, in the same setting: as for QEGPEYWDGNT [HLA-B_Y83_R86G], the figure is inactive: 0.724.
For EQLRAYLEGLC [HLA-C_Y183_T187L], the enrichment score was inactive: 1.22.
Same read-out and setting: as for AQVDTYCRHNF [HLA-DRB1_Y107_A103Q_YF], the figure is inactive: 1.29.
Still for that read-out and setting: as for RFLERDIFNRE [HLA-DPB1_Y57_Y57D_YF], the figure is inactive: 0.818.

The next assay deals with SHP2 N-SH2 domain L43F. The assay is described as above. The settings on record: peptide library: pTyr-Var.
Consider GKGGSYSQAAS [HLA-B_Y344_C349S], for which the enrichment score was inactive: 0.607.
With RLVTRYIFNRE [HLA-DQB1_Y62_Y58L_YF], the enrichment score was inactive: 0.348.
On to RGVTRYIFNRE [HLA-DQB1_Y62_Y58G_YF], for which the enrichment score is inactive: 0.282.
Turning to EQDRAYLEGTC [HLA-C_Y183_L180D], the enrichment score is inactive: 0.568.
For DWLRRYLENGK [HLA-A_Y195_E190D], the enrichment score is inactive: 0.541.
With SHSMRYFFTAV [HLA-C_Y31_D33F], the enrichment score was inactive: 2.83.
On to TLQSMYGCDVG [HLA-B_Y123], for which the enrichment score was inactive: 0.729.
RLLRGYNQSAF [HLA-C_Y137_D138N_YF]: the enrichment score is inactive: 1.12.
Turning to LERFIYNPEEF [HLA-DPB1_Y59_R61P_YF], the enrichment score is inactive: 1.09.
Still for that read-out and setting: as for FISVGYVDDTL [HLA-B_Y51_Q56L], the figure is inactive: 1.1; as for RFLERYIYNPE [HLA-DPB1_Y57_R61P], inactive: 1.59; as for ESLRRYLENGK [HLA-B_Y195_W191S], inactive: 0.549.
Still for that read-out and setting: as for FITVGYVDDTQ [HLA-B_Y51_S48T], the figure is inactive: 1.08; as for LERFIYNREEL [HLA-DPB1_Y59_F64L_YF], inactive: 1.2.
Regarding QEGPEYWDGNT [HLA-B_Y83_R86G], the enrichment score was inactive: 0.649.
Consider EQLRAYLEGLC [HLA-C_Y183_T187L], for which the enrichment score was inactive: 1.03.
For AQVDTYCRHNF [HLA-DRB1_Y107_A103Q_YF], the enrichment score was inactive: 0.896.
For RFLERDIFNRE [HLA-DPB1_Y57_Y57D_YF], the enrichment score was inactive: 1.2.

The target of a further assay is SHP2 N-SH2 domain T42A. Described as above. The settings on record: peptide library: pTyr-Var.
For the molecule GKGGSYSQAAS [HLA-B_Y344_C349S], the enrichment score is inactive: 0.527.
Regarding RLVTRYIFNRE [HLA-DQB1_Y62_Y58L_YF], the enrichment score is inactive: 0.341.
Regarding RGVTRYIFNRE [HLA-DQB1_Y62_Y58G_YF], the enrichment score was inactive: 0.331.
Still for that read-out and setting: as for EQDRAYLEGTC [HLA-C_Y183_L180D], the figure is inactive: 0.482; as for DWLRRYLENGK [HLA-A_Y195_E190D], inactive: 0.323; as for SHSMRYFFTAV [HLA-C_Y31_D33F], inactive: 2.61.
As for TLQSMYGCDVG [HLA-B_Y123], the enrichment score was inactive: 0.71.
On to RLLRGYNQSAF [HLA-C_Y137_D138N_YF], for which the enrichment score was inactive: 0.995.
In the case of LERFIYNPEEF [HLA-DPB1_Y59_R61P_YF], the enrichment score is inactive: 1.33.
For the molecule FISVGYVDDTL [HLA-B_Y51_Q56L], the enrichment score was inactive: 1.1.
The same measure, in the same setting: as for RFLERYIYNPE [HLA-DPB1_Y57_R61P], the figure is inactive: 1.92; as for ESLRRYLENGK [HLA-B_Y195_W191S], inactive: 0.497; as for FITVGYVDDTQ [HLA-B_Y51_S48T], inactive: 1.12.
Take LERFIYNREEL [HLA-DPB1_Y59_F64L_YF]: the enrichment score was inactive: 0.912.
Turning to QEGPEYWDGNT [HLA-B_Y83_R86G], the enrichment score was inactive: 0.663.
On the same count and under the same terms, as for EQLRAYLEGLC [HLA-C_Y183_T187L], the figure is inactive: 1.17; as for AQVDTYCRHNF [HLA-DRB1_Y107_A103Q_YF], inactive: 0.948; as for RFLERDIFNRE [HLA-DPB1_Y57_Y57D_YF], inactive: 1.06.

In the next assay the target is SHP2 N-SH2 domain T52S. The description is as above. Conditions: peptide library: pTyr-Var.
Turning to GKGGSYSQAAS [HLA-B_Y344_C349S], the enrichment score is inactive: 0.41.
Take RLVTRYIFNRE [HLA-DQB1_Y62_Y58L_YF]: the enrichment score is inactive: 0.372.
Turning to RGVTRYIFNRE [HLA-DQB1_Y62_Y58G_YF], the enrichment score was inactive: 0.25.
Regarding EQDRAYLEGTC [HLA-C_Y183_L180D], the enrichment score is inactive: 0.541.
For DWLRRYLENGK [HLA-A_Y195_E190D], the enrichment score was inactive: 0.441.
On the same count and under the same terms, as for SHSMRYFFTAV [HLA-C_Y31_D33F], the figure is inactive: 2.84.
Take TLQSMYGCDVG [HLA-B_Y123]: the enrichment score is inactive: 0.826.
RLLRGYNQSAF [HLA-C_Y137_D138N_YF]: the enrichment score was inactive: 1.3.
Take LERFIYNPEEF [HLA-DPB1_Y59_R61P_YF]: the enrichment score was inactive: 1.06.
On the same count and under the same terms, as for FISVGYVDDTL [HLA-B_Y51_Q56L], the figure is inactive: 1.26; as for RFLERYIYNPE [HLA-DPB1_Y57_R61P], inactive: 1.97; as for ESLRRYLENGK [HLA-B_Y195_W191S], inactive: 0.733.
On the same count and under the same terms, as for FITVGYVDDTQ [HLA-B_Y51_S48T], the figure is inactive: 1.45.
Still for that read-out and setting: in the case of LERFIYNREEL [HLA-DPB1_Y59_F64L_YF] it was inactive: 1.32.
With QEGPEYWDGNT [HLA-B_Y83_R86G], the enrichment score was inactive: 0.586.
For EQLRAYLEGLC [HLA-C_Y183_T187L], the enrichment score was inactive: 1.1.
Take AQVDTYCRHNF [HLA-DRB1_Y107_A103Q_YF]: the enrichment score is inactive: 0.893.
As for RFLERDIFNRE [HLA-DPB1_Y57_Y57D_YF], the enrichment score is inactive: 1.6.

A further assay deals with SHP2 N-SH2 domain wild-type. The description is as above. Conditions: peptide library: pTyr-Var.
On to GKGGSYSQAAS [HLA-B_Y344_C349S], for which the enrichment score was inactive: 0.669.
On the same count and under the same terms, in the case of RLVTRYIFNRE [HLA-DQB1_Y62_Y58L_YF] it was inactive: 0.274; in that of RGVTRYIFNRE [HLA-DQB1_Y62_Y58G_YF], inactive: 0.314; in that of EQDRAYLEGTC [HLA-C_Y183_L180D], inactive: 0.638.
As for DWLRRYLENGK [HLA-A_Y195_E190D], the enrichment score is inactive: 0.509.
For SHSMRYFFTAV [HLA-C_Y31_D33F], the enrichment score is inactive: 2.76.
Same read-out and setting: as for TLQSMYGCDVG [HLA-B_Y123], the figure is inactive: 0.861.
Turning to RLLRGYNQSAF [HLA-C_Y137_D138N_YF], the enrichment score was inactive: 1.22.
The same measure, in the same setting: as for LERFIYNPEEF [HLA-DPB1_Y59_R61P_YF], the figure is inactive: 1; as for FISVGYVDDTL [HLA-B_Y51_Q56L], inactive: 1.25.
Take RFLERYIYNPE [HLA-DPB1_Y57_R61P]: the enrichment score was inactive: 1.94.
Still for that read-out and setting: in the case of ESLRRYLENGK [HLA-B_Y195_W191S] it was inactive: 0.882; in that of FITVGYVDDTQ [HLA-B_Y51_S48T], inactive: 1.2; in that of LERFIYNREEL [HLA-DPB1_Y59_F64L_YF], inactive: 1.58.
As for QEGPEYWDGNT [HLA-B_Y83_R86G], the enrichment score was inactive: 0.773.
On to EQLRAYLEGLC [HLA-C_Y183_T187L], for which the enrichment score was inactive: 1.7.
Take AQVDTYCRHNF [HLA-DRB1_Y107_A103Q_YF]: the enrichment score is inactive: 1.08.
Regarding RFLERDIFNRE [HLA-DPB1_Y57_Y57D_YF], the enrichment score was inactive: 0.653.
